PubChem BioAssay AID2675 (National Center for Advancing Translational Sciences (NCATS), 2010)
Among all 280,000 compounds or so, about 100 (0.036%) were called active. Inconclusive results, whose numbers are uncertain, are shown with a selection of clear calls. Calls follow the shape of the dose curve; as a rule, active = well fitted inhibition curve with a large enough effect in the signal ratio, with a control signal flat (not every such curve was filed as active); inconclusive = small, poorly fitted or top-dose-only effect, or effect the other way, or a change in a side signal; inactive = no such curve, though single readings can be large or run the other way; the % refers to the signal ratio. Potencies beside an inconclusive call are fits to weak or partial responses and may not hold up. “Side channel” marks fits to a control or component signal instead of the main read-out.

The compounds below were run against Muscleblind-like protein 1 (Homo sapiens) (UniProt Q9NR56) (assay: qHTS Assay for Inhibitors of MBNL1-poly(CUG) RNA binding). Settings: TR-FRET MBNL1-His/biotin-(CUG)12 binding, 665/545 ratio; activity change, negative = inhibition: at 57.5 µM (top of the series).
UniProt Q9NR56, sequence (Q9NR56 whole entry, looked up): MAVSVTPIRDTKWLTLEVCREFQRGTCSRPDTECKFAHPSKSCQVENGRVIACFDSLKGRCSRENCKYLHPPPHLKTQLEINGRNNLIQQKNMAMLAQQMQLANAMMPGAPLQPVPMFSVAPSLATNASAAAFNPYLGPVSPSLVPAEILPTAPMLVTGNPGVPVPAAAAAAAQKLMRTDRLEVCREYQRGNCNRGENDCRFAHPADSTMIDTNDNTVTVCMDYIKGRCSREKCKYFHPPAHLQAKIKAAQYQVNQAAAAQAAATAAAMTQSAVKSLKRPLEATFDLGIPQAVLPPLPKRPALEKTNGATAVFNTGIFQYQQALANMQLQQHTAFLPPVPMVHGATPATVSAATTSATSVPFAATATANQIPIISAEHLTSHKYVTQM
Summary of the method: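 Compound titration spanned 92 nM–58 uM against the MBNL1-His/biotin-(CUG)12 complex. After 60 min at room temperature with 5 nM streptavidin-XL665 and 0.055 ng/ul terbium anti-His, ratiometric 665/545 nm emission (Ex 340 nm) normalized to controls.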
% is scaled to controls: 0 for no effect and ±100 for the full control effect; potency is read from the fitted curve at half-maximal effect; tags tell the direction and shape of the fitted curve or compound fluorescence and quenching.

| SMILES | Potency | activity change, negative = inhibition |
| --- | --- | --- |
| O=C(Nc1ccc(N2CCN(Cc3ccccc3F)CC2)cc1)c1ccc([N+](=O)[O-])o1 | inconclusive: 0.631 µM [quencher, side channel, full curve, poor fit] | – |
| CC(C)CCSc1cc(NCCO)c([N+](=O)[O-])c2nonc12 | inconclusive: 3.16 µM [quencher, side channel, full curve] | – |
| Cc1nnc(SCc2cc(=O)oc3cc(O)ccc23)n1Cc1ccccc1 | inconclusive: 11.2 µM [quencher, side channel, single point] | – |
| COc1ccc(C[C@H]2CN3C(=NC[C@@H]3Cc3ccccc3)N2CCNC(=O)CCC2CCCCC2)cc1 | inactive | – |
| COc1ccc(Cc2nnc(NS(=O)(=O)c3ccc(Cl)cc3)s2)cc1OC | inactive | – |
| Cc1nn(-c2ccccc2)c2c1C1(C(=O)N3c4c(cccc41)C(C)CC3(C)C)C(C#N)=C(N)O2 (stereo unspecified) | inconclusive: 17.8 µM [quencher, side channel, partial curve] | – |
| COc1ccc(NC(=O)COc2ccc(-c3nn(C)c(=O)c4ccccc34)cc2)cc1 | inactive | – |
| CCOC(=O)c1ccccc1NC(=O)c1cncc(Br)c1 | inconclusive: 35.5 µM [fluorescent, side channel, single point] | – |
| O=C(NC1CCC(NC(=O)C2CCCO2)CC1)C1CCCO1 (stereo unspecified) | inactive | – |
| CCCSc1nnc(N2C(=O)CC(c3ccsc3)C3=C2CCCC3=O)s1 (stereo unspecified) | inconclusive: 25.1 µM [quencher, side channel, single point] | – |
| O=c1c(-c2ccco2)[n+]([O-])c2ccccc2n1OCc1c(F)cccc1F | inconclusive: 3.55 µM [quencher, side channel, full curve] | – |
| CCOC(=O)c1c(C)nc2sc3c(=O)n(-c4ccc(C(C)=O)cc4)cnc3c2c1-c1ccc(Cl)cc1 | inactive | – |
| C/C(NC(=O)c1cccc(F)c1)=C1/C(=O)C[C@@H]2[C@H]1C2(C)C | inconclusive: 22.4 µM [quencher, side channel, single point] | – |
| S=C1NC(c2ccccc2)=CC(c2ccccc2)N1 (stereo unspecified) | inactive | – |
| CCc1ccc(CN(C)C(=O)C2CCC(=O)N(Cc3ccccn3)C2)cc1 (stereo unspecified) | inactive | – |
| COc1ccccc1-n1c(SCC(=O)NC2CCS(=O)(=O)C2)nc2cc([N+](=O)[O-])ccc21 (stereo unspecified) | – | inconclusive: 18.6% [phenotype inactive] |
| Cc1nn(CC(=O)NCCCN2CCOCC2)c(C)c1[N+](=O)[O-] | inconclusive: 39.8 µM [quencher, side channel, single point] | – |
| CCOC(=O)c1sc(S(C)=O)c2c1CCc1conc1-2 (stereo unspecified) | inconclusive: 15.8 µM [quencher, side channel, partial curve] | – |
| Cc1ccc(-c2[nH][nH]c(=O)c(=O)c2N=Nc2ccccc2)cc1 | inactive | – |
| O=C(NC(=S)Nc1ccccc1[N+](=O)[O-])c1cncc(Br)c1 | inconclusive: 25.1 µM [quencher, partial curve] | – |
| C=CCN1C(=O)/C(=C/c2ccc(OCC(=O)O)cc2)S/C1=N/c1nccs1 | inconclusive: 25.1 µM [quencher, side channel, partial curve] | – |

| SMILES | Potency | activity change, negative = inhibition |
| --- | --- | --- |
| NS(=O)(=O)c1ccc(Cl)c(C(=O)Nc2ccccc2[N+](=O)[O-])c1 | inconclusive: 14.1 µM [quencher, side channel, partial curve] | – |
| Cc1c(NC(=O)C2CCCN2S(=O)(=O)c2cccc3nsnc23)cccc1C(=O)O (stereo unspecified) | inconclusive: 11.2 µM [quencher, side channel, partial curve] | – |
| Cc1ccc(CSc2nnc(-c3ccc(NS(=O)(=O)c4ccccc4)cc3)o2)cc1 | inactive | – |
| Oc1c(C=NCc2ccccc2)sc2ccccc12 | inconclusive: 39.8 µM [fluorescent, side channel, single point] | – |
| COc1ccc(NC(=O)CSc2nnc(-c3cccs3)n2-c2ccccc2)cc1 | inactive | – |
| COc1cc(/C=C(\C#N)c2nc3ccccc3[nH]2)cc(OC)c1O | inconclusive: 15.8 µM [quencher, side channel, partial curve] | – |
| Cc1noc(NS(=O)(=O)c2ccc(N/C=C\C(=O)c3ccc(F)cc3)cc2)c1C | inconclusive: 28.2 µM [quencher, side channel, partial curve] | – |
| COCCn1c(-c2cccs2)nc2nc3ccccc3nc21 | inconclusive: 8.91 µM [quencher, side channel, partial curve] | – |
| Cc1cc(N2C(=O)C(O)=C(C(=O)c3ccco3)C2c2ccc(O)cc2)no1 (stereo unspecified) | inconclusive: 31.6 µM [quencher, side channel, single point] | – |
| CN(C)S(=O)(=O)c1cccc(-c2nn(-c3ccccc3)cc2/C=C(/C#N)C(=O)NCc2ccco2)c1 | inconclusive: 0.112 µM [fluorescent, side channel, full curve] | – |
| O=c1ccc(OCCOc2ccccc2)nn1-c1ccccc1 | inconclusive: 0.1 µM [quencher, side channel, full curve, poor fit] | – |
| COc1cc(/C=N/NC(=O)c2c(-c3c(Cl)cccc3Cl)noc2C)ccc1OCC(N)=O | inconclusive: 14.1 µM [quencher, side channel, partial curve] | – |
| O=C(N/N=C/c1cccs1)c1ccccn1 | inconclusive: 28.2 µM [quencher, side channel, single point] | – |
| O=[N+]([O-])c1cc(S(=O)(=O)N2CCCCCC2)ccc1Cl | inconclusive: 39.8 µM [quencher, side channel, single point] | – |
| CCOC(=O)c1cc2c(=O)n3ccccc3nc2n(Cc2ccco2)c1=NC(=O)c1cccc(OC)c1 | inconclusive: 10 µM [quencher, side channel, partial curve] | – |
| Cc1cc(C)cc(NC(=O)Cn2nnc(C(=O)NCc3ccc(F)cc3)c2N)c1 | inactive | – |
| CC(C)OCCCNC1=C(Cl)C(=O)c2ccccc2C1=O | inconclusive: 3.55 µM [quencher, side channel, partial curve] | – |
| O=[N+]([O-])c1cccnc1SCc1ccccc1 | inconclusive: 15.8 µM [quencher, side channel, partial curve] | – |
| Cc1ccc(C(=O)OCC(=O)N(C)c2ccccc2)cc1C | inactive | – |
| CN(C)c1ccc(N2CN=C3SCC(=O)N3C2)cc1 | inconclusive: 1.78 µM [quencher, side channel, full curve, poor fit] | – |
| CCN(CC)C(=O)CNC(=O)c1nn(-c2ccc(OC)c(Cl)c2)c(=O)c2ccccc12 | inconclusive: 28.2 µM [quencher, side channel, partial curve] | – |

| SMILES | Potency | activity change, negative = inhibition |
| --- | --- | --- |
| CCCN1C(=O)c2ccc(C(=O)NC3=NCCS3)cc2C1=O | inconclusive: 12.6 µM [quencher, side channel, partial curve] | – |
| O=C(Nc1cccc(C(F)(F)F)c1)Nc1ccon1 | inactive | – |
| CCn1cc([N+](=O)[O-])c(C(=O)Nc2ccc3c(c2)OCCO3)n1 | inconclusive: 15.8 µM [quencher, side channel, partial curve] | – |
| Cc1ccc(OC(=O)c2ccc3snnc3c2)cc1 | inconclusive: 39.8 µM [quencher, side channel, single point] | – |
| COc1cc(-c2cc(C(=O)NCCc3ccc(S(N)(=O)=O)cc3)c3ccccc3n2)cc(OC)c1OC | inconclusive: 20 µM [quencher, partial curve, poor fit] | – |
| COc1ccc(-c2nc3ccccc3c(=O)n2CCOc2cccc(C)c2C)cc1 | inconclusive: 0.316 µM [fluorescent, side channel, full curve] | – |
| O=C(CC(Nc1ccc(Cl)cc1)C(=O)O)c1ccccc1 (stereo unspecified) | inactive | – |
| C/C(=C1/SC(N2CC(C)OC(C)C2)=NC1=O)c1ccccc1 (stereo unspecified) | inconclusive: 22.4 µM [quencher, side channel, partial curve] | – |
| O=C1OC(NC(=O)c2ccccc2)C(n2cc(CO)nn2)=C1Cl (stereo unspecified) | inactive | – |
| CCOC(=O)c1ccc(NC(=O)CCc2c(C)nc3ncnn3c2C)cc1 | inconclusive: 79.4 µM [inhibitor, single point] | – |
| CC(NC(=O)Cn1nc(-c2ccccc2)ccc1=O)c1ccccc1 (stereo unspecified) | inconclusive: 31.6 µM [quencher, side channel, single point] | – |
| CC(C)(C)OC(=O)NCCC(=O)N/N=C/c1cccc2cccnc12 | inconclusive: 39.8 µM [quencher, side channel, single point] | – |
| N#C/C(=C/c1cccnc1)c1ccccc1 | inconclusive: 15.8 µM [quencher, side channel, partial curve] | – |
| O=c1c(-c2ccc(O)cc2)coc2cc(OC3OC(CO)C(O)C(O)C3O)cc(O)c12 (stereo unspecified) | inconclusive: 0.398 µM [inhibitor, full curve, poor fit] | – |
| Fc1cccc(COc2ccccc2CNc2ccccc2)c1 | inconclusive: 0.0282 µM [fluorescent, side channel, full curve] | – |
| Cc1ccc(S(=O)(=O)NN2C(=O)/C(=C/c3ccc(F)cc3)SC2=S)cc1 | inactive | – |
| COc1ccccc1Nc1c2ccccc2nc2ccccc12 | inconclusive: 25.1 µM [quencher, side channel, partial curve] | – |
| O=C(c1nc2nc(-c3ccc(Cl)cc3)cc(C(F)(F)F)n2n1)N1CCOCC1 | inconclusive: 8.91 µM [quencher, full curve] | – |
| COc1ccc(C(=O)Nc2nnc(SCC(=O)Nc3ccc(NC(C)=O)cc3)s2)c(OC)c1 | inconclusive: 4.47 µM [fluorescent, full curve, poor fit] | – |
